PubChem BioAssay AID488969 (Vanderbilt High Throughput Screening Facility, 2010)
In all, about 110,000 compounds were measured (“z-score”: median about -0.1, highest 2% from about 2 on). Some of the results follow. Activity calls are given as the source filed them.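 Rule for the calls: active = z-score in the third read window above 3 or below -3; inactive = the rest.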

Molecular target: Metabotropic glutamate receptor 8 (Rattus norvegicus) (UniProt P70579)
Assay: rat mGluR8 modulators via GIRK flux, primary screen, cell-based, thallium flux, HTS (AID 488969)
Details: HEK293 rat mGluR8, GIRK (G protein-gated inwardly rectifying potassium channel) thallium flux, FluoZin2; at 10 µM; stronger effect = higher value; submaximal glutamate (EC20) added with thallium

Chain of UniProt P70579 (P70579 whole entry, looked up): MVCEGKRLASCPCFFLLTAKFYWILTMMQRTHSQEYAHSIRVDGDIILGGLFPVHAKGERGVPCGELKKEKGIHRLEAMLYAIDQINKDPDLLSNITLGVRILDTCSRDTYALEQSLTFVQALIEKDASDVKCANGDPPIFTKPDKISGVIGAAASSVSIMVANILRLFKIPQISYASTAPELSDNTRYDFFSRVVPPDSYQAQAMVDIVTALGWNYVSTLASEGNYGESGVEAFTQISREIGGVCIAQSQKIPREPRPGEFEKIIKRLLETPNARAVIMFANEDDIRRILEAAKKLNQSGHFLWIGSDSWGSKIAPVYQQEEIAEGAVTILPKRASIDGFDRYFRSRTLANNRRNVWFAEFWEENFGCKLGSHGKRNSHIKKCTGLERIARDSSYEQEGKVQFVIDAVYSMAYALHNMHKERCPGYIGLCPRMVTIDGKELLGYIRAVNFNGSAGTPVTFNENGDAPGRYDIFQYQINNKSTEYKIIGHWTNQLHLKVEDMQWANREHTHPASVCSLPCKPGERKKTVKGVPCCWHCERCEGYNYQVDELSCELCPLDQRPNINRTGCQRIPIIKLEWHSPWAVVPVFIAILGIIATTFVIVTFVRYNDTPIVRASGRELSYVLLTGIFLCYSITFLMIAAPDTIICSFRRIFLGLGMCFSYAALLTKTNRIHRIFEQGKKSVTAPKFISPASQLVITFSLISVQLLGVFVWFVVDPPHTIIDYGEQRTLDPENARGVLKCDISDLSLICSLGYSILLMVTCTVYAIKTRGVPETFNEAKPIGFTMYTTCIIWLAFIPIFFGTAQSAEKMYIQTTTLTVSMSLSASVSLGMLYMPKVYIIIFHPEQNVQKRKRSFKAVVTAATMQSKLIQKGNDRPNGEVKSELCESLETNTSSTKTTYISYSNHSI

Compound | z-score
COc1ccc(OC)c(-c2cc(C(=O)NCCCn3ccnc3)no2)c1 | -0.513
O=C(CSc1nc2ncccc2[nH]1)c1cccc([N+](=O)[O-])c1 | -0.325
CCn1c(SCC(=O)Nc2cccc(F)c2)nc2c(c1=O)SC(C)C2 (centres undefined) | -0.986
CC(=O)NS(=O)(=O)c1cccnc1Nc1ccc(Cl)cc1 | -0.763
CC(C)CNS(=O)(=O)c1ccc(OCC(=O)Nc2ccc(F)cc2F)cc1 | 0.378
CCOC(=O)c1cnn2c1[nH]c(=O)c1ccccc12 | 1.54
C=CCc1ccc(OCC(O)CN2CCC(Cc3ccccc3)CC2)c(OC)c1 (centres undefined) | -0.0438
CN(CC(O)COCc1ccc2c(c1)OCO2)C1CCCCC1 (centres undefined) | 0.00786
CCOC(=O)/C=c1\s/c(=C\c2ccc(C(F)(F)F)cc2)c(=O)n1CC(=O)NCc1ccco1 | 0.125
Cc1ccc(N(CC(=O)NCCc2ccc(F)cc2)S(=O)(=O)c2ccc(Cl)c([N+](=O)[O-])c2)c(C)c1 | -0.23
O=C(Nc1ccc2c(c1)nc1n2CCOC1)c1ccccc1 | 0.045
O=C(c1ccc(COc2ccccc2Br)o1)N1CCCCCC1 | -0.531
COc1ccc(CN2CNc3nc4ccccc4n3C2)cc1 | 0.000858
CC(=O)c1cccc(NS(=O)(=O)c2c(C)n[nH]c2C)c1 | -0.26
CCC(C)(C)n1nnnc1C(c1cccnc1)N1CCN(c2cccc(C(F)(F)F)c2)CC1 (centres undefined) | 0.82
COc1cccc(-n2nnc3c(=O)n(CC(=O)NC4CCCC4)cnc32)c1 | -0.263
Nc1nc2n(n1)C(c1ccco1)CC(c1ccc(F)cc1)N2 (centres undefined) | 0.268
CCCc1nn(C)c(C(=O)Nc2ccccc2)c1Cl | -0.39
CCCNC(=O)N1CCN(c2ncccn2)CC1 | 0.455
COCn1c(=O)c2c(nc(SC3=NCCS3)n2Cc2ccccc2C)n(COC)c1=O | -0.493
COc1ccccc1NC(=O)c1nnn(Cc2ccccc2)c1NC(=O)C(F)(F)F | 0.00332
CCOC(=O)CC(NC(=O)c1ccco1)c1ccc(C)cc1 (centres undefined) | 0.281

Compound | z-score
O=C(COC(=O)c1cccs1)Nc1cccc(S(=O)(=O)N2CCOCC2)c1 | -0.23
Cn1c(=O)n(C)c2cc(NS(=O)(=O)c3ccc4c(c3)CCCC4)ccc21 | -0.126
COCCCn1c(SCC(=O)Nc2ccc3c(c2)OCCO3)nnc1-c1ccoc1C | -0.366
COCCNC(=O)C(c1ccccc1)N(CCOC)C(=O)Cn1nnc2ccccc21 (centres undefined) | -0.461
CCOC(=O)c1ccc(NC(=O)CN2CCN(c3ccccc3)CC2)cc1 | -0.154
CCC1CCCCN1C(=O)Nc1ccc(F)cc1 (centres undefined) | 0.507
COC(=O)c1ccc(CSc2nc3c(cnn3-c3ccccc3)c(=O)[nH]2)o1 | -0.686
C=CCn1c(=O)c2c(nc(Br)n2Cc2ccccc2Cl)n(C)c1=O | -0.766
COC(=O)/C(=N/Nc1ccccc1)N1CCCc2ccccc21 | -0.429
O=C(Cc1cccs1)Nc1nnc(Cc2ccc(F)cc2)s1 | 0.0854
O=C(NCc1ccc(Cl)cc1)c1ccccc1Oc1ccccc1 | -0.72
Cc1ccnc(NC(=S)NC(=O)/C=C/c2ccco2)c1 | active: 3.2
Cc1[nH]n(-c2ccccc2)c(=O)c1S(=O)(=O)c1ccccc1 | -0.642
CC(=O)NC1=NC(=O)/C(=C/N2CCCCC2)S1 | 0.174
COc1ccc(NC(=O)CN2C(=O)CC(C)(C)S(=O)(=O)c3ccccc32)cc1 | 0.877
Cc1ccc(OC(=O)C2c3ccccc3Oc3ccccc32)cc1C | -0.276
COc1cccc2cc(C(=O)N3CCCCC3C)c(=O)oc12 (centres undefined) | -0.11
CC(C)NC(=O)c1cc2c(C(F)(F)F)nn(C)c2s1 | 0.193
COc1ccc(C2CC(c3ccc(Cl)cc3)=NN2C(=O)c2cccc([N+](=O)[O-])c2)cc1 (centres undefined) | -0.109
Cc1ccc(/C=C/C(=O)Nc2nnc(C)s2)o1 | -0.106
COc1cccc(NC(=S)NN2CCN(C)CC2)c1 | -0.264
O=C(CSc1ccccc1)Nc1ccc(N2CCOCC2)cc1 | 0.00596

Compound | z-score
Clc1ccc(Sc2cnc3ccccc3n2)cc1 | 0.162
COC(=O)N/N=C/c1cccc(OCCSc2ccc(Cl)cc2)c1 | 0.814
CS(=O)(=O)N(Cc1ccc(Cl)cc1)c1ccc(C(=O)NCCSCc2ccco2)cc1 | -0.158
COc1ccc(C2CC(c3cccs3)=NN2C(=O)CSc2nc3ccccc3s2)cc1 (centres undefined) | 0.0016
CCOC(=O)c1c(C)[nH]c(C)c1C(=O)CSc1nnc(-c2cc(OC)c(OC)c(OC)c2)o1 | 0.427
Cn1c(N)c(N2CCCCC2)c(=O)n(CC(=O)Nc2ccc(Cl)c(Cl)c2)c1=O | 0.48
O=C(CSc1ncnc2nc[nH]c12)c1ccccc1 | 0.198
CCC(CC)NC(=O)COC(=O)c1ccc(OCc2ccc(C(C)=O)cc2OC)c(OC)c1 | -0.23
O=S(=O)(Nc1nc(CN2CCOCC2)nc2sc3c(c12)CCCC3)c1cc(F)ccc1F | -0.617
COc1ccc(C(CC(=O)O)NC(C)=O)cc1OC (centres undefined) | -0.0457
Cc1ccc(-c2cn3cccnc3n2)cc1NC(=O)c1ccc(Br)o1 | -0.146
CCOC(=O)C(CCCCCOc1ccccc1[N+](=O)[O-])C(=O)OCC | 1.25
O=C(NCCc1ccccc1)C(c1ccncc1)N(C(=O)c1csnn1)C1CC1 (centres undefined) | -0.113
CCCn1nnc(NC(=O)c2sc3ccccc3c2Cl)n1 | 0.0281
COC(=O)c1cc(NC(=O)Nc2cccc(Cl)c2)ccc1Cl | -0.309
O=C(CSc1nnc(CNc2cccc(C(F)(F)F)c2)n1Cc1ccco1)NCc1ccco1 | 1.19
O=C(NCCCCNC(=O)C1CCCC1)C1CCCC1 | -0.493
C=CCNC(=O)NC(=O)COC(=O)CCCSc1nc2ccccc2[nH]1 | -0.828
Cc1cccn2c(=O)c(/C=C(\C#N)C(=O)NCc3ccco3)c(N3CCCC(C)C3)nc12 (centres undefined) | -0.634
COc1ccccc1NC(=O)CN1CCN(CC(=O)Nc2ccc(OCc3ccccc3)cc2)CC1 | -0.223
COc1cccc(NC(=O)COc2ncnc3sc(C)c(C)c23)c1 | 0.102
COc1ccc(-n2cnc3sc(-c4ccccc4)cc3c2=O)cc1 | 0.458

Compound | z-score
O=C(Nc1ccc(NC(=O)c2ccco2)nc1)c1cccnc1 | -0.0311
CCN(CC)C(=O)COc1cc(C)cc2oc(=O)cc(-c3ccccc3)c12 | -0.189
O=C(CC1C(=O)NCCN1C(=S)Nc1ccccc1)Nc1ccc(F)cc1 (centres undefined) | -0.305
CC(C)c1nnc(NC(=O)c2sc3ccccc3c2Cl)s1 | 0.175
CCOc1cc2c(cc1OCC)C(C(=O)O)C(c1cc(Br)c(O)c(OC)c1)N(C)C2=O (centres undefined) | -0.122
CC(CC1C(C#N)=C(N)OC2=C1C(=O)CCC2)c1ccccc1 (centres undefined) | 0.816
CN(C)c1ccc(NC(=O)c2sc(SCC(=O)Nc3ccc(Br)cc3)nc2N)cc1 | -0.172
Cc1ccc(-c2noc(CN(C(=O)CCCN3C(=O)c4ccccc4C3=O)C(C)C)n2)cc1 | -0.0776
O=C(Nc1nnc(-c2cccs2)o1)c1cccc(F)c1 | active: 4.44
O=C(Nc1ccc(Cl)cc1Cl)c1ccc(-c2ccccc2)cc1 | -0.131
O=C(Nc1ccc(-c2nc3ccc(NC(=O)c4cccs4)cc3[nH]2)cc1)c1cccs1 | -0.131
COc1ccc(OC)c(NC(=O)c2cc(S(=O)(=O)NCc3ccco3)ccc2F)c1 | -0.0347
NS(=O)(=O)c1ccc(CCNc2ncnc3sccc23)cc1 | -0.155
Cc1ccc2n(n1)c(=O)c(Cc1ccccc1)c([O-])[n+]2-c1ccccc1 | -1.39
COc1ccc(-n2c(=O)c3ccccc3n(CC(=O)NC3CCCCC3)c2=O)cc1 | -0.362
Cn1c(=O)c2c(-c3ccccc3)n(CCCN3CCOCC3)cc2n(C)c1=O | 0.0216
COC(=O)c1ccccc1NC(=O)c1cc(-c2ccc(C)cc2)on1 | 0.0332
CCCC(=O)Nc1ccccc1N1CCN(C(=O)c2ccccc2)CC1 | active: -3.9
Clc1ccc(CCNc2ncnc3nc[nH]c23)cc1 | 0.639
N/C(=N\OC(=O)Cc1ccccc1)c1cccnc1 | -0.295
CC1Oc2ccccc2N(Cc2ccccc2F)C1=O (centres undefined) | -0.302
Cc1cc([N+](=O)[O-])nn1CC(=O)NNC(=S)Nc1ccc([N+](=O)[O-])cc1 | 0.131

Compound | z-score
O=C(CSc1ccc2ccccc2c1)Nc1nc2ccccc2[nH]1 | -0.0545
OC(COCC1COc2ccccc2O1)CN1CCc2ccccc2C1 (centres undefined) | -0.334
Cn1nc(C(F)(F)F)c(C(=O)Nc2cccc(C(F)(F)F)c2)c1SCc1ccc(Cl)cc1 | -0.279
O=C1c2ccccc2C(Nc2ccccc2)N1c1cccnc1 (centres undefined) | -0.0961
COc1ccc(N2CCN(C(=O)CN(Cc3ccccc3)S(C)(=O)=O)CC2)cc1 | 0.0254
COc1ccc(NC(=O)c2sc(SCc3ccccc3)nc2N)cc1 | -0.382
CCOc1ncccc1C(=O)OCC(=O)c1cccs1 | -0.0632
CCn1c(SCCOc2ccc(OC)cc2)nnc1C(CO)NC(=O)c1ccc(OC)cc1 (centres undefined) | -0.159
Cc1cccc(/C=C2/SC(=O)N(Cc3ccccc3)C2=O)n1 | -0.0965
Cc1cccc(C(C#N)c2nc3ccccc3nc2C(F)(F)F)c1 (centres undefined) | 0.0785
O=C(CSc1nnc(CNC(=O)c2c(F)cccc2Cl)o1)Nc1ccc2c(c1)OCCO2 | -0.241
Cc1ccc(Cn2nnc3c(=O)[nH]c(C4CCCN(C(=O)Nc5ccc(F)cc5)C4)nc32)cc1 (centres undefined) | 0.631
COc1ccc(Cl)cc1N1C(=O)CC(N2CCc3ccccc32)C1=O (centres undefined) | 0.108
Cc1ccc(-c2nnc(SCC(=O)N3CCCc4ccccc43)n2N)cc1 | 1.38
CC1CCCC(NC(=O)COC(=O)c2sc3ccccc3c2Cl)C1C (centres undefined) | -0.187
COc1ccc(N(Cc2ccccc2)C(=O)c2ccccc2[N+](=O)[O-])cc1 | -1.8
N#Cc1c(NC(=O)C2CC(c3c(F)cccc3Cl)=NO2)sc2c1CCC2 (centres undefined) | -0.118
CCOC(=O)c1cc(C(=O)OCC)c2cc(Br)ccc2n1 | -0.198
CCN(CC)c1ccc2cc(-c3nc4ccccc4n3C)c(=O)oc2c1 | 0.242
Cc1c(C(=O)N2CCc3ccccc32)oc2ccccc12 | -0.0222
NC(=O)C1CCN(CC(=O)Nc2ccccc2Sc2ccc(Cl)cc2)CC1 | -0.19
